# Laboratory results reported in PubChem BioAssay (NCATS).
# Several values for one entry are separate records, joined by “and”; a condition that tells them apart may be missing. Identical values can stand only once. Inconclusive means that the source gave no clear call. Such entries were picked first, then a sample of the others. For part of these data: Where the call is inconclusive, the potency comes from a doubtful curve fit. Activity calls are given as the source filed them. The call rests on the fitted dose curve; in most records, active means well fitted curve in the direction sought with a large enough effect; inconclusive means small, poorly fitted or top-dose-only effect, or another doubt; inactive means no such curve, though single readings can be large; an effect the other way counts as inactive or inconclusive.
# Key:
# [1] = tested on: HaCat; assay: Cytotoxic Profiling of Annotated Libraries Using Quantitative High-Throughput Screening (AID 1296008); settings: Five cell lines viability, CellTiter-Glo ATP luminescence, 48-72 h; max response: stronger effect = lower value; further: nearly all actives have a fitted effect of over 60% in size
# In short: (§1)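 Cells exposed to compounds for 48 or 72 hr at 37 degrees Celsius. Viability read as ATP-coupled luminescence with CellTiter-Glo after 10 min at room temperature.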
# [2] = tested on: NIH3T3; assay: as above; settings: Five cell lines viability, CellTiter-Glo ATP luminescence, 48-72 h; max response: stronger effect = lower value
# In short: as §1
# [3] = tested on: SKOV3; assay: Primary qHTS to identify gynecologic anti-cancer compounds using libraries of approved drugs and bioactive compounds (AID 1345084); settings: Gynecologic cancer cell panel viability, ATPlite luminescence, 48 h; series mostly up to 57.5 µM; further: nearly all actives have a fitted effect of over 55% in size; on activity change, negative = cytotoxicity: on the % scale 0 is the no-effect control and ±100 the full control effect
# In short: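 ATP-based viability (ATPlite), 1,000 cells/well, 16 h pre-incubation, 48 h compound at 37 C, 5% CO2, 15 min RT before read.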
# [4] = qHTS of pediatric cancer cell lines to identify multiple opportunities for drug repurposing: Primary screen for DAOY cells (AID 1347090); settings: DAOY medulloblastoma viability, CellTiter-Glo luminescence, 48 h; activity change, negative = cytotoxic: at 46 µM (top of the series); further: nearly all actives have a fitted effect of over 55% in size
# In short: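 Viability measured as metabolically active cells via CellTiter-Glo luminescence following 48 hours of compound exposure, 11-point dilutions in confirmatory testing. 500-1,000 cells/well plated 5 hours before dosing; controls were DMSO and 2.3 µM bortezomib.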
# [5] = qHTS of pediatric cancer cell lines to identify multiple opportunities for drug repurposing: Primary screen for BT-37 cells (AID 1347094)
# In short: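 Following a 5-hour attachment period, cells at 500-1,000/well received compounds and were cultured for 48 hours. CellTiter-Glo was added and luminescence read to estimate viable, metabolically active cells.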
# [6] = qHTS of pediatric cancer cell lines to identify multiple opportunities for drug repurposing: Primary screen for U-2 OS cells (AID 1347096); further: nearly all actives have a fitted effect of over 50% in size;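 on activity change, negative = cytotoxic: plate controls were DMSO wells for no effect and bortezomib positive control wells for full effect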
# In short: (§2)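 Viability after 48 h compound treatment at 37C, 500-1,000 cells/well, read as ATP luminescence with CellTiter-Glo. Primary screens used 11-point (MIPE, 0.78 nM-46 µM) or 8-point (NPC, 0.59 nM-46 µM) final concentrations; follow-up screens used 11-point dilutions.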
# [7] = Quantitative High-Throughput drug screen in 47 multiple myeloma cell lines against the NCATS MIPE library collection: Karpas417_ECACC cell viability assay (AID 1918961); settings: Karpas417 myeloma viability, CellTiter-Glo ATP luminescence, 48 h; viability (% of DMSO): at 45.8 µM (top of the series)
# In short: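 Viability readout: CellTiter-Glo luminescence following 5 min room-temperature incubation with reagent. Prior exposure: 48 h, 37C, humidified 5% CO2, 500 cells per well.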
# [8] = Quantitative High-Throughput drug screen in 47 multiple myeloma cell lines against the NCATS MIPE library collection: KHM11_PLB cell viability assay (AID 1918962); settings: KHM11 myeloma cell viability, CellTiter-Glo ATP luminescence, 48 h; viability, % of DMSO control: at 45.8 µM (top of the series); further: nearly all actives have a fitted effect of over 35% in size
# In short: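 We plated 500 myeloma cells per well, pinned in MIPE 4.0 compounds, and incubated for 48 hours at 37C. ATP was then quantified with CellTiter-Glo, with DMSO and media-only wells defining 100% and 0%.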
# [9] = Quantitative High-Throughput drug screen in 47 multiple myeloma cell lines against the NCATS MIPE library collection: SKMM1_PLB cell viability assay (AID 1919863); settings: SKMM1 myeloma viability, CellTiter-Glo ATP, 48 h; viability: stronger effect = lower value; further: nearly all actives have a fitted effect of over 35% in size
# In short: (§3)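 Cells were exposed to library compounds for 48 hours, after which ATP was measured by CellTiter-Glo. Signal was taken as median relative luminescence units.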
# [10] = tested on: KB-3-1; assay: Cytotoxic Profiling of Annotated Libraries Using Quantitative High-Throughput Screening (AID 1296008); settings: Five cell lines viability, CellTiter-Glo ATP luminescence, 48-72 h; max response: stronger effect = lower value; further: nearly all actives have a fitted effect of over 60% in size
# In short: as §1
# [11] = tested on: MCC-13; assay: qHTS assay to identify novel small-molecules to repurpose for Merkel cell carcinoma treatment (AID 1296009); settings: MCC and control cell lines, CellTiter-Glo viability, 72 h; series mostly up to 46 µM; further: nearly all actives have a fitted effect of over 60% in size; on activity change, negative = cytotoxicity: on the % scale 0 is the no-effect control and ±100 the full control effect
# In short: (§4)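 Dose-response viability screen; 72 hr exposure at 37 degree celsius; CellTiter-Glo added, 10 min room temperature, luminescence read; RLUs scaled between no-cell and DMSO wells.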
# [12] = tested on: UISO; assay: as above; settings: MCC and control cell lines, CellTiter-Glo viability, 72 h; activity change, negative = cytotoxicity: at 46 µM (top of the series)
# In short: as §4
# [13] = NS1 protein of Zika virus - qHTS assay to identify small molecule inhibitors in human HEK 293 cells (AID 1347053); further: nearly all actives have a fitted effect of over 55% in size
# In short: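 In this cell-based screen, HEK 293 cultures received compound for one hour before Zika MR766 at MOI = 0.5. NS1 was quantified 24 hours later by TR-FRET, normalized to virus-free wells and infected wells.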
# [14] = qHTS of pediatric cancer cell lines to identify multiple opportunities for drug repurposing: Primary screen for LAN-5 cells (AID 1347100)
# In short: as §2
# [15] = Quantitative High-Throughput drug screen in 47 multiple myeloma cell lines against the NCATS MIPE library collection: OCIMY1_PLB cell viability assay (AID 1918979); further: nearly all actives have a fitted effect of over 35% in size
# In short: as §3
# [16] = Quantitative High-Throughput drug screen in 47 multiple myeloma cell lines against the NCATS MIPE library collection: KMS34_JCRB cell viability assay (AID 1918985); further: nearly all actives have a fitted effect of over 40% in size
# In short: as §3
# [17] = Quantitative High-Throughput drug screen in 47 multiple myeloma cell lines against the NCATS MIPE library collection: UTMC2_PLB cell viability assay (AID 1919868); settings: CellTiter-Glo ATP luminescence, 48 h; viability (% of DMSO control): at 45.8 µM (top of the series); further: nearly all actives have a fitted effect of over 55% in size
# In short: as §3
# [18] = tested on: MKL-1; assay: qHTS assay to identify novel small-molecules to repurpose for Merkel cell carcinoma treatment (AID 1296009); settings: MCC and control cell lines, CellTiter-Glo viability, 72 h; activity change, negative = cytotoxicity: at 46 µM (top of the series); further: nearly all actives have a fitted effect of over 60% in size; on activity change, negative = cytotoxicity: on the % scale 0 is the no-effect control and ±100 the full control effect
# In short: as §4
# [19] = tested on: MKL-2; assay: as above; settings: MCC and control cell lines, CellTiter-Glo viability, 72 h; activity change, negative = cytotoxicity: at 46 µM (top of the series)
# In short: as §4
# [20] = tested on: WaGa; assay: as above; settings: MCC and control cell lines, CellTiter-Glo viability, 72 h; series mostly up to 46 µM
# In short: as §4
# Potency means the concentration at half of the fitted maximal effect; tags describe the fitted curve by direction and shape.
smiles,measurement,setting,value
CCOc1cc2ncc(C#N)c(Nc3ccc(OCc4ccccn4)c(Cl)c3)c2cc1NC(=O)/C=C/CN(C)C,Potency,[1],active: 0.224 µM
same,Potency,[2],"inconclusive: 5.02 µM [inhibitor, partial curve]"
same,Potency,[3],"inconclusive: 0.355 µM [cytotoxic, full curve, poor fit]"
Cn1c(=O)n(-c2ccc(C(C)(C)C#N)cc2)c2c3cc(-c4cnc5ccccc5c4)ccc3ncc21,Potency,[4],"inconclusive: 0.059 µM [cytotoxic, full curve]"
same,Potency,[5],active: 0.0544 µM
same,Potency,[6],"inconclusive: 0.059 µM [cytotoxic, full curve]"
same,viability (% of DMSO),[7],inconclusive: 2.55% [cytotoxic]
same,Potency,[8],"inconclusive: 0.0935 µM [cytotoxic, full curve]"
same,Potency,[9],active: 0.0332 µM
same,Potency,[1],"inconclusive: 5.8 µM [inhibitor, full curve]"
same,Potency,[10],active: 731 nM and active: 16.6 nM
same,Potency,[2],active: 580 nM and active: 46.9 nM
same,Potency,[11],"inconclusive: 0.105 µM [inhibitor, full curve]"
same,Potency,[12],"inconclusive: 0.0296 µM [inhibitor, full curve]"
same,Potency,[3],"inconclusive: 1.78 µM [cytotoxic, full curve, poor fit]"
Cc1nnc(C(C)C)n1C1CC2CCC(C1)N2CC[C@H](NC(=O)C1CCC(F)(F)CC1)c1ccccc1 (some centres undefined),Potency,[3],"inconclusive: 3.55 µM [rising, full curve, poor fit]"
c1cc(-c2cnn3cc(-c4ccc(OCCN5CCCCC5)cc4)cnc23)ccn1,Potency,[13],"inconclusive: 37.2 µM [inhibitor, single point]"
same,Potency,[4],active: 18.7 µM
same,Potency,[14],active: 9.35 µM
same,Potency,[8],active: 1.48 µM
same,Potency,[15],active: 26.4 µM
same,Potency,[16],active: 13.2 µM
same,Potency,[17],"inconclusive: 2.64 µM [cytotoxic, full curve, poor fit]"
same,Potency,[2],active: 0.372 µM
same,Potency,[11],active: 16.6 µM
same,Potency,[18],active: 11.8 µM
same,Potency,[19],"inconclusive: 6.62 µM [inhibitor, full curve, poor fit]"
same,Potency,[12],active: 5.9 µM
COc1cc2c(Oc3ccc(-c4cnc(Nc5ccc(F)cc5)n(C)c4=O)cc3F)ccnc2cc1OCCCN1CCOCC1,Potency,[13],"inconclusive: 26.4 µM [inhibitor, single point]"
same,Potency,[7],"inconclusive: 1.87 µM [cytotoxic, full curve, poor fit]"
same,Potency,[8],active: 8.33 µM
same,Potency,[15],active: 11.8 µM
same,Potency,[17],active: 5.26 µM
same,Potency,[1],"active: 23.5 µM and inconclusive: 7.31 µM [inhibitor, partial curve, poor fit]"
same,Potency,[2],active: 526 nM and active: 5.8 µM
same,Potency,[11],"inconclusive: 26.4 µM [inhibitor, single point]"
same,Potency,[18],"inconclusive: 33.2 µM [inhibitor, single point]"
same,Potency,[19],"inconclusive: 37.2 µM [inhibitor, single point]"
same,Potency,[20],"inconclusive: 29.6 µM [inhibitor, single point]"
same,Potency,[3],inactive
COc1ccc(COc2cc3oc(=O)c4cc(C(C)O)ccc4c3cc2OC)cc1 (centres undefined),Potency,[4],"inconclusive: 23.5 µM [cytotoxic, single point]"
same,Potency,[5],"inconclusive: 19.3 µM [cytotoxic, partial curve]"
same,Potency,[8],active: 7.43 µM
same,Potency,[15],"inconclusive: 18.7 µM [cytotoxic, partial curve, poor fit]"
same,Potency,[16],active: 18.7 µM
same,Potency,[10],"inconclusive: 14.8 µM [inhibitor, partial curve]"
same,Potency,[2],"inconclusive: 37.2 µM [inhibitor, partial curve, poor fit]"
same,Potency,[20],"inconclusive: 10.5 µM [inhibitor, partial curve]"
COc1ccc(C=Cc2cc(OC)c(OC)c(OC)c2)cc1O,Potency,[4],active: 0.001 µM
same,Potency,[8],inactive
same,Potency,[16],inactive
same,viability,[9],inactive: 34.9%
same,Potency,[17],inactive
same,Potency,[18],inconclusive: 0.0007 µM [inhibitor]
same,Potency,[19],inactive
same,Potency,[12],inconclusive: 0.0008 µM [inhibitor]
Nc1nc(Cl)nc2c1ncn2[C@H]1C[C@H](O)[C@@H](CO)O1,Potency,[13],"inconclusive: 37.2 µM [inhibitor, single point]"
same,Potency,[4],"inconclusive: 18.7 µM [cytotoxic, partial curve]"
same,Potency,[5],active: 0.273 µM
same,Potency,[6],inactive
same,Potency,[14],active: 0.418 µM
same,Potency,[15],"inconclusive: 7.43 µM [cytotoxic, partial curve]"
same,Potency,[16],"inconclusive: 3.72 µM [cytotoxic, full curve, poor fit]"
same,Potency,[9],"inconclusive: 0.118 µM [cytotoxic, full curve, poor fit]"
same,Potency,[1],active: 1.32 µM
same,Potency,[10],"inconclusive: 29.1 µM [inhibitor, single point] and inconclusive: 1.66 µM [inhibitor, full curve]"
same,Potency,[11],"inconclusive: 1.32 µM [inhibitor, full curve]"
same,Potency,[18],active: 0.418 µM
same,Potency,[20],active: 0.418 µM
